# Measured values from the supplement of paper PMC7826260.
# Some of the results follow. One pool of 16,384 single-stranded DNAs met each Rep nickase domain in vitro at 3 µM enzyme and 37 °C for 1 h; the strands have 90 letters, of which the middle is given. The score is log2 (uncut reads / reads without enzyme); more negative means more cut, near 0 not cut, and no call is made. Counts are relative to all reads; uncut strands gain when others are lost, and binding without cutting may add a little.
# Legend:
# Assay in all cases: uncleaved DNA left, log2 of reads against the no-enzyme library (log2 ratio); higher = less cleavage (more negative = more Rep cleavage of the k-mer); sequences stand for … in CTCGTCCG…ACCGGAGA
# [1] = tested on: T1, Rep nickase domain of Muscovy duck circovirus
# T1 sequence (residues 1-111, tag not shown): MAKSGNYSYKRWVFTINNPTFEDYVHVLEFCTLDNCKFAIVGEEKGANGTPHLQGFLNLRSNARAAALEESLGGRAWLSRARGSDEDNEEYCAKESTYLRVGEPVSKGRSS
# Method: (§1)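 A pool of 90-nt single-stranded DNAs with seven random bases just before the constant AC of the nick site (name = the seven bases) was cut by 3 µM recombinant His6-SUMO-tagged Rep nickase domain (300 nM DNA, 50 mM HEPES pH 8.0, 50 mM NaCl, 1 mM MnCl2, 1 h, 37 °C, three replicates). Uncut DNA was amplified and sequenced.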
# [2] = tested on: T2, Rep nickase domain of banana bunchy top virus
# T2 sequence (residues 1-94, tag not shown): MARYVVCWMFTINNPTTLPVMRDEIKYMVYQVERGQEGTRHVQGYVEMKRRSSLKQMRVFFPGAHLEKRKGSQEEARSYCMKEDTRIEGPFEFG
# Method: as §1
# [3] = tested on: T3, Rep nickase domain of cabbage leaf curl virus
# T3 sequence (residues 1-116, tag not shown): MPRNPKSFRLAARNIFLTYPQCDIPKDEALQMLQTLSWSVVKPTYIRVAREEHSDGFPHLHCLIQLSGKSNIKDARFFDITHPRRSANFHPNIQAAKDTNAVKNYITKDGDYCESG
# Method: as §1
# [4] = tested on: T4, Rep nickase domain of chickpea chlorotic dwarf virus
# T4 sequence (residues 1-124, tag not shown): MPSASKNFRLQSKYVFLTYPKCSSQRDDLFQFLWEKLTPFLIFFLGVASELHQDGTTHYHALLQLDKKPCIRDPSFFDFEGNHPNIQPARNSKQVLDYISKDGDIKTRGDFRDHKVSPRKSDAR
# Method: as §1
# [5] = tested on: T5, Rep nickase domain of faba bean necrotic yellows virus
# T5 sequence (residues 1-98, tag not shown): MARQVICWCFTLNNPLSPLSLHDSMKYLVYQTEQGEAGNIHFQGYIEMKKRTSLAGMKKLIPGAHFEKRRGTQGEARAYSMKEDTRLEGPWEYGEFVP
# Method: as §1
# [6] = tested on: T6, Rep nickase domain of maize striate mosaic virus
# T6 sequence (residues 1-117, tag not shown): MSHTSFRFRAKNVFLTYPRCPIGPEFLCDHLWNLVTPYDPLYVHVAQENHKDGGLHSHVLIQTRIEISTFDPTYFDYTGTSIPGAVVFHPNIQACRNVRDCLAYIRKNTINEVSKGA
# Method: as §1
# [7] = tested on: T7, Rep nickase domain of porcine circovirus 2
# T7 sequence (residues 2-116, tag not shown): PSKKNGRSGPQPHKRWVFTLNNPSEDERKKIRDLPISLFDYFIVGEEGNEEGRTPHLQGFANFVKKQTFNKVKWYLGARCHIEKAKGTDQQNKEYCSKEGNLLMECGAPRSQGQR
# Method: as §1
# [8] = tested on: T8, Rep nickase domain of tomato golden mosaic virus
# T8 sequence (residues 1-124, tag not shown): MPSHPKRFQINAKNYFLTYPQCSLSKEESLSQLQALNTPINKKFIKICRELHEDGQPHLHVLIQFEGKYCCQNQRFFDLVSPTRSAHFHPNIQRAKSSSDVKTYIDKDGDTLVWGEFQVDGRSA
# Method: as §1
# [9] = tested on: T9, Rep nickase domain of tomato yellow leaf curl virus
# T9 sequence (residues 1-136, tag not shown): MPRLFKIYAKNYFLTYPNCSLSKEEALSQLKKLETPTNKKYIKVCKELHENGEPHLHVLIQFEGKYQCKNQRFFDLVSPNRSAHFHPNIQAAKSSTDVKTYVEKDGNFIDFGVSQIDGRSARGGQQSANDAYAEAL
# Method: as §1
# [10] = tested on: T10, Rep nickase domain of wheat dwarf virus
# T10 sequence (residues 1-137, tag not shown): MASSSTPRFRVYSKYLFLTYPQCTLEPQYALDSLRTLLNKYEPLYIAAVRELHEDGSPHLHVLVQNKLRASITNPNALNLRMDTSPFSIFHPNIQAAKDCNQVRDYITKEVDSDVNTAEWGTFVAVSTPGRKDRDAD
# Method: as §1
Sequence,uncleaved DNA left (log2) [1],uncleaved DNA left (log2) [2],uncleaved DNA left (log2) [3],uncleaved DNA left (log2) [4],uncleaved DNA left (log2) [5],uncleaved DNA left (log2) [6],uncleaved DNA left (log2) [7],uncleaved DNA left (log2) [8],uncleaved DNA left (log2) [9],uncleaved DNA left (log2) [10]
ATGGCAA,0.125,-0.0638,0.0611,0.174,-0.058,-0.338,0.125,0.0687,0.0944,-0.0044
TAAGACG,0.133,0.144,-0.432,-0.606,0.103,-0.885,0.204,0.0605,0.0285,0.0825
GGCGTCC,0.00376,-0.0252,0.257,0.734,-0.0924,1.06,-0.0758,-0.0855,-0.0606,-0.0295
GGACATT,0.156,0.0943,0.791,1.95,-0.0217,2.27,0.138,-0.153,-0.0397,0.253
CTATAAA,-0.0786,-0.0847,-0.155,-0.145,-0.0481,-0.726,0.107,0.0981,-0.0991,0.0537
CATCTTC,-0.0596,-0.167,-0.0989,-0.447,-0.136,-0.894,-0.152,-0.0215,-0.108,-0.0273
ATAGTCG,0.0894,-0.139,-0.788,0.0674,0.0977,-0.887,0.228,-0.0896,0.0584,-0.0498
CACGACT,0.051,-0.162,-0.189,-1.43,0.0143,1.05,0.0272,-0.0368,-0.104,0.00925
CATATTC,0.0785,0.0337,-0.0892,-0.2,0.0258,-0.832,0.0992,0.108,0.0739,0.0482
TGCAGTA,0.0163,-0.0333,-0.144,-0.691,0.05,-0.775,-0.207,-0.071,0.0432,0.0638
ATAAGCT,-0.0507,-0.0588,-2.6,-2.61,-0.0181,-0.796,0.0396,-0.116,-0.102,-0.344
TCACTCG,0.031,-0.00885,-0.817,-0.55,-0.0657,-1.17,0.0405,-0.0179,-0.151,-0.143
TTTACGT,-0.00545,-0.0329,0.318,0.0361,-0.0544,0.648,0.045,-0.0547,-0.0613,-0.1
ACGCTCC,-0.07,-0.0902,-0.0389,0.202,-0.0586,0.581,-0.02,-0.0761,-0.168,-0.15
AGTGCCC,-0.0411,0.0449,0.228,0.614,-0.135,0.651,-0.128,0.0482,-0.00115,0.0656
GAACACA,-0.0242,0.0661,0.298,-1.18,0.0302,0.959,0.145,0.0924,0.0846,0.215
GGCTGGA,0.0146,-0.0668,0.356,1,-0.0312,1.47,0.0467,-0.0437,-0.0958,-0.0355
ATAATTG,0.0954,0.0982,-0.531,-0.52,0.0713,-1.27,0.082,0.0576,-0.0243,-0.0658
CCAGGGC,-0.0938,-0.022,-0.129,0.000857,0.0109,-0.619,0.0563,-0.157,-0.1,-0.0892
CATCGGA,-0.00119,-0.0424,0.0605,0.0605,0.013,-0.427,0.0678,-0.0529,0.0344,-0.0326
CCCCCTT,-0.0247,-0.109,0.0552,-1.63,0.0783,-0.383,-0.466,-0.0407,-0.0774,0.0289
AAGCAGG,0.0886,0.036,0.0601,0.35,0.114,-0.0868,0.253,0.174,-0.0577,0.0638
GCGAAGC,0.0865,0.0708,0.168,0.82,0.0437,0.376,0.108,0.0718,2.06e-05,0.0366
ACGTACC,-0.0709,0.0393,-0.125,-0.233,-0.0515,-0.438,-0.219,-0.0426,-0.123,0.00295
CTCCCGG,-0.0143,-0.0237,0.351,1.11,-0.243,1.33,0.0414,-0.0716,-0.188,-0.00559
TGCTGGC,-0.0277,-0.00628,0.116,0.306,-0.00264,0.253,0.0464,-0.0628,-0.0666,-0.2
AATAAAT,0.02,-0.0656,-0.0598,-1.05,-0.0183,-0.171,-2.59,0.109,-0.0455,-0.00751
GTCATGG,0.123,0.247,0.342,0.924,0.0504,1.74,0.219,0.32,0.197,0.177
TAGTATG,-0.159,-0.265,-0.486,-0.688,-0.111,-0.868,-1.77,-0.111,-0.0555,-0.205
TGACTAG,-0.0619,-0.0475,-0.168,0.21,-0.0119,-0.1,0.14,-0.0932,0.0336,-0.0656
